Laboratory results from the supplement of paper PMC10126150.
Sequences with one replicate were seen in a single cluster, so their values are uncertain.

Tested on: ATP
Assay: switch fluorescence ratio, 500 uM ATP over buffer (Cy3 cluster intensity, sum of 5 cycles each) (fold (ratio)); higher = stronger signal-on switching upon ATP binding; sequences stand for … in TCGTCGGCAGCGTCAGATGTGTATAAGAGACAGTTTTTTTTTTTTTTTTTTTTTTTTT…TC
Conditions: aptamer strand: ATP DNA aptamer (quencher-CACCTGGGGGAGTATTGCGGAGGAAGG + anchor), 100 nM annealed; ATP concentration: 500 uM; one replicate
How it was run: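 Five buffer/ATP imaging cycles were run on Cy3-labelled switching-strand clusters on a modified Illumina MiSeq flow-cell, with NaOH stripping and re-annealing between cycles. In each cycle, clusters annealed to 100 nM quencher-labelled ATP aptamer were imaged in selection buffer, then after 15 min with 500 uM ATP at 22 °C. Per cluster, the fluorescence ratio is summed target-cycle over summed buffer-cycle Cy3 intensity, averaged per switch-domain sequence. Only clusters within 100-1000 RFU were kept.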
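Also: ATP exposure 15 min at 22 °C before imaging.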

Sequence | switch fluorescence ratio
ATAACGGCGT | 0.98
ATAACGTAGT | 0.968
ATAACTGGAT | 1.01
ATAAGAACT | 1.1
ATAAGGAATC | 1.01
ATAAGGATTA | 0.996
ATAAGGGCGG | 0.982
ATAAGGGG | 0.976
ATAAGGTTTG | 0.988
ATAAGTAGTC | 0.97
ATAAGTGACG | 1.01
ATAAGTGCA | 0.978
ATAAGTGTCC | 1.02
ATAAGTGTGC | 1.04
ATAATAACGA | 1.03
ATAATACAGA | 1.04
ATAATAGAGA | 0.969
ATAATATGCT | 0.981
ATAATCGTGA | 0.969
ATAATGAGTT | 1.03
ATAATGCACT | 1.12
ATAATGGACC | 1.05
ATAATGGTCA | 1.03
ATAATGTA | 0.977
ATAATTCCGT | 0.99
ATAATTGCAG | 1.01

Sequence | switch fluorescence ratio
ATAATTTCAT | 1.01
ATACACAAGA | 1.05
ATACACGAAA | 1.23
ATACACGAGA | 1.07
ATACACTGTA | 1.05
ATACCAGATC | 1.07
ATACCATAAG | 1.05
ATACCATTTG | 1.04
ATACCCACAA | 1.35
ATACCCGTTC | 0.987
ATACCGCTGA | 1.26
ATACCGTATA | 1.17
ATACCGTCGC | 1.07
ATACCTGTAT | 1.06
ATACCTTAGA | 1
ATACGAGCGG | 1
ATACGAGGCC | 1.08
ATACGCGCTT | 1.02
ATACGGCATC | 1.07
ATACGGCTCT | 0.998
ATACGGGAC | 1.28
ATACGGGCAG | 1.01
ATACGGTATC | 1.25
ATACGTGGTA | 0.994
ATACGTGTCT | 1.03
ATACGTTATG | 1.15

Sequence | switch fluorescence ratio
ATACTCCCTG | 2.09
ATACTCGCGA | 1.18
ATACTCTAAT | 1.06
ATACTCTCTG | 1.01
ATACTCTTGT | 0.979
ATACTGAAGA | 1.04
ATACTGAGAT | 1.01
ATACTGGGAC | 1.04
ATACTGGTCA | 1.05
ATACTGTAGC | 1.16
ATACTTCACT | 1.47
ATACTTGCGG | 1.05
ATACTTGGTC | 1.04
ATACTTTCG | 1.06
ATACTTTGTT | 0.984
ATACTTTTCC | 1.14
ATAGAAACGC | 0.973
ATAGAACTCC | 1.02
ATAGAGTAAG | 1.01
ATAGAGTTAC | 1
ATAGATTATC | 1
ATAGATTTTT | 0.974
ATAGCAAAAC | 3.68
ATAGCAAAGA | 4.64
ATAGCCCGAC | 1.09
ATAGCGAATT | 1.03

Sequence | switch fluorescence ratio
ATAGCGGCG | 0.988
ATAGCGGCTT | 0.975
ATAGCGTGA | 1.05
ATAGCGTGGT | 1.03
ATAGCTGGCT | 1.09
ATAGGAATTC | 1.02
ATAGGACGAT | 1
ATAGGACTTT | 0.993
ATAGGATTAA | 0.967
ATAGGCCCGG | 1.01
ATAGGCGAGT | 1.03
ATAGGGCACG | 0.961
ATAGGGTTA | 0.974
ATAGGTGCAA | 1.05
ATAGGTGCT | 1.07
ATAGTAGGAT | 0.991
ATAGTCGTCA | 1.04
ATAGTGCCTT | 1.02
ATAGTGCGCA | 1
ATAGTGCTG | 0.94
ATAGTGTTTC | 0.979
ATAGTTGCG | 1.02
ATAGTTGCTT | 0.974
ATAGTTTTGA | 1
ATATAAACCG | 1.08
ATATAAAGAG | 1.02

Sequence | switch fluorescence ratio
ATATAATCTT | 1.01
ATATAGAGT | 1.01
ATATAGGAAC | 1.01
ATATAGTAAA | 1
ATATAGTAG | 1.02
ATATATAGCG | 0.932
ATATATAGT | 1
ATATATGGG | 0.958
ATATCAGACC | 0.965
ATATCAGGCC | 0.961
ATATCATAGG | 1.02
ATATCCAGTA | 1.04
ATATCGCTGC | 1.12
ATATCGGGAT | 0.956
ATATCGGGGC | 0.995
ATATCGTGTA | 1.02
ATATCTGTTT | 1
ATATGAAGTG | 1.1
ATATGAGAAT | 0.978
ATATGATATG | 1.02
ATATGATTGG | 1.04
ATATGCACGG | 1.02
ATATGGCGAG | 0.965
ATATGGGCCT | 1
ATATGGGGCA | 0.995
ATATGTACCC | 1.07

Sequence | switch fluorescence ratio
ATATGTAGAC | 0.981
ATATGTGTGC | 0.984
ATATGTGTT | 0.968
ATATGTTACC | 1.02
ATATTAACTA | 1.02
ATATTATAGG | 0.943
ATATTCCGCT | 1.14
ATATTCGAAG | 0.987
ATATTCTATA | 0.99
ATATTGACGT | 1.04
ATATTGGTC | 1.04
ATATTTCACG | 0.992
ATATTTTTGC | 0.989
ATCAAACTAA | 1.01
ATCAAAGTT | 1.03
ATCAAATTAC | 1.06
ATCAACCCCT | 1.09
ATCAAGCGCG | 0.997
ATCAATGATC | 0.957
ATCAATTATA | 1
ATCACATCAA | 1.02
ATCACGTATT | 1.21
ATCACTGGAA | 1.02
ATCAGAACGG | 1.02
ATCAGAACGT | 1.01
ATCAGAGGA | 1.04

Sequence | switch fluorescence ratio
ATCAGAGTGA | 0.994
ATCAGATGTT | 1.05
ATCAGGCTAA | 1.03
ATCAGGGAGG | 1.01
ATCAGGTCCT | 0.998
ATCATATTGA | 1
ATCATCATTA | 0.972
ATCATCCAAG | 0.994
ATCATCCTAC | 1.17
ATCATCCTTT | 0.957
ATCATGGACT | 0.984
ATCATGTGGA | 0.992
ATCATTAGGT | 0.971
ATCATTCCCC | 1.06
ATCATTGCTA | 0.922
ATCATTGCTT | 1.05
ATCATTTCTA | 0.987
ATCCACAATG | 1.31
ATCCACGGTG | 2.38
ATCCCAAATC | 1.15
ATCCCCCGAA | 1.04
ATCCCGGTC | 1.03
ATCCCGTGGT | 1.03
ATCCCGTTTG | 1.07
ATCCCTTTTG | 0.964
ATCCGATGGG | 0.996

Sequence | switch fluorescence ratio
ATCCGCAAGG | 3.86
ATCCGCCGGG | 1.1
ATCCGCTCGA | 1.64
ATCCGGATTT | 0.984
ATCCGGGTTA | 1.01
ATCCGGTATA | 1.07
ATCCGTCCTT | 1
ATCCTCATCT | 1.03
ATCCTGGGAG | 0.984
ATCCTGGTCC | 1.02
ATCCTGTGCA | 1.2
ATCGAAACAG | 0.994
ATCGAAGAAT | 1.03
ATCGAATGCC | 0.934
ATCGAATGGG | 0.975
ATCGACGGCA | 1.04
ATCGACTAAG | 1.02
ATCGAGAGTC | 1.02
ATCGAGATAG | 1.02
